Test results reported in PubChem BioAssay AID504339 (National Center for Advancing Translational Sciences (NCATS), 2011).
Among all 390,000 compounds or so, about 17,000 (4.4%) were called active. The shares of active, inactive and inconclusive entries below differ from those in the screen. Calls come from the whole dose curve; as a rule, active = well fitted inhibition curve with a large enough effect; inconclusive = small, poorly fitted or top-dose-only effect; inactive = no such curve, though single readings can be large or run the other way. A potency beside an inconclusive call is a rough fit, not a confirmed value.

These molecules were tested against Lysine-specific demethylase 4A (Homo sapiens) (UniProt O75164) (assay: qHTS Assay for Inhibitors of JMJD2A-Tudor Domain). Settings: AlphaScreen JMJD2A-Tudor / H3K4me3 peptide binding; activity change, negative = inhibition: at 114 µM (top of the series).
UniProt O75164, sequence (O75164 whole entry, looked up, the tested form may be a part): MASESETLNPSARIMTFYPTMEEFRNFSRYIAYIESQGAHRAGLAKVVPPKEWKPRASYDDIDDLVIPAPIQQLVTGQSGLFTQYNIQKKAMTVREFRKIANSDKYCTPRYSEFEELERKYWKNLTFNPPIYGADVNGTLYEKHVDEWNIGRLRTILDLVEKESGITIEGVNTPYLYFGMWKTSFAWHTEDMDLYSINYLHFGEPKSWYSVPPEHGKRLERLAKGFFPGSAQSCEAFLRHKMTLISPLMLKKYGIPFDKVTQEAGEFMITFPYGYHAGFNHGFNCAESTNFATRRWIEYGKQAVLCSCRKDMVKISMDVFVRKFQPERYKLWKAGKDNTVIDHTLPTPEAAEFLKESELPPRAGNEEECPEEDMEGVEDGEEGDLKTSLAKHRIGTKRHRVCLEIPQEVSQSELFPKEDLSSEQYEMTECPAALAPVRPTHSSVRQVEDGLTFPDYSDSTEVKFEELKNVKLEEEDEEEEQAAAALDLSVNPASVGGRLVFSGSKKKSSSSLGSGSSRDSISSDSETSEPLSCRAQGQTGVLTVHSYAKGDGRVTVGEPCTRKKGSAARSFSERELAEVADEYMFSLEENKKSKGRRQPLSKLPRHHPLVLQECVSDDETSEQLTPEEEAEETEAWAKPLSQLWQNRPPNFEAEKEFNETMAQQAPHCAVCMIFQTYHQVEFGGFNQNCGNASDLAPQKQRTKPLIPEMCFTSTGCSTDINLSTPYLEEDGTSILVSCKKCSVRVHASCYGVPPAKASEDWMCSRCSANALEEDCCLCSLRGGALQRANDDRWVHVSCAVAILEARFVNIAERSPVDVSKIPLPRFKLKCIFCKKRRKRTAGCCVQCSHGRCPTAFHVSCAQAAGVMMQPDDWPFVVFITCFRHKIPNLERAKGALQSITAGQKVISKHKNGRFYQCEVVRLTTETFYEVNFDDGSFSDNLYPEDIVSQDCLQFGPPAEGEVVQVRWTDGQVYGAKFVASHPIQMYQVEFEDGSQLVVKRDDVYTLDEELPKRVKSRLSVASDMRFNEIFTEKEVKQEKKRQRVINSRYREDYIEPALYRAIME
% is set by controls: 0 for no effect and ±100 for the full control effect; potency is the fitted concentration of half-maximal effect; tags give direction and shape of the fitted curve.
Note: nearly all actives have a fitted effect of over 50% in size.

Potency, inconclusive:
CCCCC(=O)NC(Nc1cc(C)ccn1)(C(=O)OCC)C(F)(F)F (centres undefined) 39.8 µM [inhibitor, single point], Cc1cc(C)nc(NNS(=O)(=O)c2ccc(Cl)cc2)n1 39.8 µM [inhibitor, single point], CCOc1cc(N2CCOCC2)c(OCC)cc1NC(=O)c1c(-c2ccccc2)noc1C 56.2 µM [inhibitor, partial curve], COCCn1nnnc1C(c1ccccc1)N1CCN(C)CC1 (centres undefined) 50.1 µM [inhibitor, partial curve], O=C(Nc1ccc(-c2ccccc2)cc1)c1ccc2c(c1)S(=O)(=O)c1ccccc1C2=O 3.55 µM [inhibitor, partial curve], O=C(CCCN1C(=O)/C(=C/c2ccc3c(c2)OCO3)SC1=S)Nc1ccc(C(=O)O)cc1 44.7 µM [inhibitor, partial curve], Cc1c(N=C2N=C(NC(=O)c3cccs3)c3ccccc32)c(=O)n(-c2ccccc2)n1C 7.94 µM [inhibitor, full curve], O=c1oc2ccccc2c(NC2CCCCC2)c1NS(=O)(=O)c1ccc(F)cc1 22.4 µM [inhibitor, partial curve, poor fit], Cc1ccc(F)cc1NC(=O)COC(=O)c1ccc2ncsc2c1 100 µM [inhibitor, partial curve, poor fit], Cc1ccc(NC(=O)c2c(C)nn(-c3ccccc3)c2Cl)cc1 89.1 µM [inhibitor, single point], CCOC(=O)C(/C=C(\C#N)C(=O)OCC)=C(/N)N1CCN(c2ccc(OC)cc2)CC1 70.8 µM [inhibitor, single point], Cc1cc(C)n(-c2nc(NCCN(C)C)c3c4c(sc3n2)CCCC4)n1 39.8 µM [inhibitor, partial curve], O=C(Cn1c(=O)n(CCc2c[nH]c3ccccc23)c(=O)c2cccnc21)Nc1ccccc1F 11.2 µM [inhibitor, full curve, poor fit], CS(=O)(=O)c1cc([N+](=O)[O-])c(Sc2nc3ccccc3[nH]2)c([N+](=O)[O-])c1 56.2 µM [inhibitor, partial curve], COc1ccc(CCn2c(-c3ccncc3)n[nH]c2=S)cc1OC 28.2 µM [inhibitor, single point], COC(=O)[C@@]1(Cc2ccc(F)cc2)[C@H]2c3cc(C(=O)N4CCCC4)n(CCCNc4ncc(C(F)(F)F)cc4Cl)c3C[C@H]2CN1C(=O)c1ccccc1 44.7 µM [inhibitor, partial curve], Cc1ccc(Nc2ccc(N3CCN(C(=O)c4ccc([N+](=O)[O-])cc4Cl)CC3)nn2)cc1 44.7 µM [inhibitor, partial curve], CC(/C=C1\SC(=S)N(C(C(=O)O)C(C)C)C1=O)=C\c1ccccc1 (centres undefined) 22.4 µM [inhibitor, partial curve], NCCNc1ncnc2ccc(-c3ccc4c(c3)OCO4)cc12 56.2 µM [inhibitor, partial curve], CCc1ccc(-n2c(CCC(=O)O)ccc2-c2cccs2)cc1 50.1 µM [inhibitor, partial curve], CCCOc1ccc(/C=N/Nc2ccc(C(=O)O)cc2)c(OCCC)c1 100 µM [inhibitor, partial curve], CCOC(=O)N1CCC(NC(=O)CS(=O)(=O)Cc2nc(-c3ccc(OC)cc3)oc2C)CC1 14.1 µM [inhibitor, partial curve, poor fit], O=C(CCC1CCCC1)NNC(=O)c1cc2ccccc2cc1O 35.5 µM [inhibitor, partial curve]

Potency, active:
COc1cc2sc(-c3ccccc3OC)c(-c3ccc(OCCN4CCOCC4)cc3)c2cc1OC 31.6 µM, O=c1[nH]c(=S)c2[nH]c(=S)n(-c3ccccc3)c2[nH]1 20 µM, COc1ccc(C2C(C(C)=O)=C(C)N=c3s/c(=C\c4ccco4)c(=O)n32)c(OC)c1 (centres undefined) 31.6 µM, O=C(O)CCN1C(=O)/C(=C/c2cn(-c3ccccc3)nc2-c2cccs2)SC1=S 22.4 µM, CN(C)S(=O)(=O)c1cccc(NC(=S)N/N=C/C2CC=CCC2)c1 (centres undefined) 12.6 µM, Cc1ccc2nc3c(cc2c1)CN(Cc1ccco1)C(=NCC1CCCO1)S3 (centres undefined) 56.2 µM, COC(=O)c1cc2c(-c3ccccc3)cc3ccccn3c-2c1C(=O)OC 44.7 µM

Activity change, negative = inhibition, inactive:
CCOc1ccc(NC(=O)c2ccc(NC(=O)c3ccc(CN4CCOCC4)cc3)cc2)cc1 -8.77%, O=C(O)c1ccc(N2C(=O)CSC2=S)cc1 8.39%, CCOC(=O)C1CCCN(C(=O)c2cccc(N3C(=O)c4ccccc4C3=O)c2)C1 (centres undefined) -15.2%, Cc1cn2c(=O)cc(COc3ccc(NC(=O)c4ccc(C(C)(C)C)cc4)cc3)nc2s1 -21.2%, Cc1cc(S(=O)(=O)Nc2c(C(=O)O)[nH]c3ccccc23)ccc1F -21.3%, Nc1nc(NC(=O)c2ccccc2)nn1-c1ccccc1 -8.82%, Cc1ccccc1-n1c(O)c(/C=C/C=Nc2ccccc2)c(=O)[nH]c1=O -6.9%, Cc1cc(O)c(C(c2ccccc2)N2CCC(C)CC2)c(=O)n1Cc1ccco1 (centres undefined) -25.6%, CC(OC(=O)c1ccc(S(=O)(=O)NCc2ccco2)cc1)C(=O)Nc1ccccc1 (centres undefined) -0.694%, CC1=NN(C(N)=S)C(=O)C1N=Nc1ccccc1Cl (centres undefined) -12.8%, COc1cccc(-c2nnc(NC(=O)CCS(=O)(=O)c3ccc(C)cc3)o2)c1 -23%, CCOC(=O)CSc1nnc(NC(=O)CCc2ccccc2)s1 -0.987%, Cc1c(Cl)cccc1NC(=O)CSc1nc(=O)n(CCN2CCOCC2)c2c1CCC2 -2.27%, CCOc1ccc(NC(=O)c2sc3nc(-c4ccc(OC)cc4)cn3c2C)cc1 -15%
